Values after ≈ are worked out from the molar mass of the structure shown.
Key:
[1] = test system: Staphylococcus epidermidis; details: cited from earlier work
[2] = test system: Staphylococcus haemolyticus; type: cell-based; details: lacks SPases with Pro^29
Rhodococcus equi = type: cell-based
Yersinia pestis = type: cell-based
Bacillus subtilis = type: cell-based
Streptococcus pneumoniae = type: cell-based
Klebsiella pneumoniae = type: cell-based
Streptococcus pyogenes = type: cell-based

| Structure (SMILES) | minimum inhibitory concentrations (MICs) [1] | arylomycin susceptibility [2] | arylomycin susceptibility (Rhodococcus equi) | difference in sensitivities between R. opacus and R. equi (Rhodococcus equi) | arylomycin susceptibility (Yersinia pestis) | arylomycin susceptibility (Bacillus subtilis) | adverse effects on the human cells (human HeLa 229 cells) | arylomycin susceptibility (Streptococcus pneumoniae) | arylomycin susceptibility (Klebsiella pneumoniae) | arylomycin susceptibility (Streptococcus pyogenes) |
| --- | --- | --- | --- | --- | --- | --- | --- | --- | --- | --- |
| CC(C)CCCCCCCCC(=O)N(C)[C@H](CO)C(=O)N[C@H](C)C(=O)NCC(=O)N(C)[C@@H]1C(=O)N[C@@H](C)C(=O)N[C@H](C(=O)O)Cc2ccc(O)c(c2)-c2cc1ccc2O [arylomycin A2, reference compound] | 1.0 µg/mL (≈ 1.21 µM) |  |  |  |  |  |  |  |  |  |
| CCCCCCCCCCCCCCCC(=O)N(C)[C@H](CO)C(=O)N[C@H](C)C(=O)NCC(=O)N(C)[C@@H]1C(=O)N[C@@H](C)C(=O)N[C@H](C(=O)O)Cc2ccc(O)c(c2)-c2cc1ccc2O [arylomycin C16] | 0.25 µg/mL (≈ 0.284 µM) | sensitive | sensitive | 8 fold | sensitive | resistant | no adverse effects | sensitive | resistant | sensitive |

From paper PMC3003444 (Chemistry & biology, 2010)
